Measurements as given in PMC6212790.
This is one part of the list. At the low end of the ranking the order means little.

Molecular target: T1, GST-Rok-C97-191 (UniProt O34857)
T1 sequence: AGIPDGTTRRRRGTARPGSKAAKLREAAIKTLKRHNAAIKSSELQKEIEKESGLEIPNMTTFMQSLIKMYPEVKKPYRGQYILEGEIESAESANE
Assay: protein binding microarray;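 note: rank score from −0.5 (least bound) to 0.5 (best bound)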
Details: Rok is a gene silencer of Bacillus subtilis; high values mean tight binding; most listed sequences are background and not binding sites; double strand, one strand shown

| Sequence | binding signal [E-score] |
| --- | --- |
| ACGTAAAC | 0.094 |
| AAGCTCCT | -0.203 |
| AGCATGTC | 0.0814 |
| CAGCAGGA | -0.178 |
| ACCGTTTG | -0.0593 |
| ATTTCGTG | 0.107 |
| ATATCCGG | 0.129 |
| AGCGGCGG | -0.182 |
| ATTCGTTA | 0.304 |
| GTGATAAA | 0.22 |
| ACGATGCG | -0.177 |
| CTGCATGA | -0.229 |
| CCTTCGGA | -0.208 |
| GCGGATAC | 0.117 |
| CTTTTGAC | 0.0255 |
| AAGTTAGT | 0.266 |
| AGCCGACT | -0.0753 |
| AAACCCTC | -0.0736 |
| AGTGGAGG | -0.233 |
| AACGAGCT | -0.224 |
| CAATACAG | -0.226 |
| CTCCTCCC | -0.274 |
| CATTTTCA | -0.075 |
| ACGGAGAG | -0.18 |
| CAACTTTA | 0.101 |

| Sequence | binding signal [E-score] |
| --- | --- |
| AGATTCCA | -0.0445 |
| CAAACACC | -0.0978 |
| CCTTTACA | 0.0334 |
| GTCGCCAA | -0.125 |
| AAACGTTC | -0.0945 |
| AATTACCT | 0.288 |
| CTCGGTTC | -0.114 |
| CACTCCGC | -0.138 |
| CAGCGTCC | -0.225 |
| CCACCAGA | -0.16 |
| CAACCCAG | -0.157 |
| GATCTTGA | -0.0384 |
| ATTGGTTG | 0.0136 |
| AGAATAGG | -0.081 |
| AGTGCCGC | -0.0284 |
| CCACTTGA | 0.0687 |
| AACGCGAA | 0.00876 |
| CGTATAGC | 0.108 |
| ATCGATTG | 0.0686 |
| CCGGCTTA | -0.145 |
| GGTGATAC | 0.0208 |
| CTGCGCTC | -0.337 |
| AAATAGCT | 0.336 |
| CAGTTTTA | 0.17 |
| CTTATGCC | -0.0842 |

| Sequence | binding signal [E-score] |
| --- | --- |
| TGCTCCCA | -0.103 |
| CCGCTCAC | -0.223 |
| AGCACTAC | 0.104 |
| AGTTGTAT | 0.299 |
| CCTTGCTC | -0.189 |
| CTCGACAC | -0.144 |
| ACAGGTAG | 0.1 |
| GTGTTAGA | 0.0835 |
| AAACCAGT | -0.0399 |
| CATCAGAA | -0.0518 |
| TAGTGACA | 0.0704 |
| AACAAAGC | 0.0826 |
| AACGGACC | -0.186 |
| AGAAACCG | -0.049 |
| AGTCATTG | -0.06 |
| ATGAGCTA | 0.0625 |
| GCTGAAAC | -0.122 |
| AGTAACTA | 0.436 |
| AGTGCTAA | 0.208 |
| ACTTGGAA | 0.0252 |
| CAGTGAGA | -0.139 |
| TAGTCTAA | 0.139 |
| ACCGGTCG | -0.167 |
| AGTCCTTG | -0.0271 |
| TACCCCCA | -0.178 |

| Sequence | binding signal [E-score] |
| --- | --- |
| CTGTACTA | 0.0893 |
| ACCTATTC | 0.0409 |
| CCGGTCCG | -0.0984 |
| CGTACGAC | 0.00795 |
| ACCGGAGT | -0.201 |
| CGGTCACG | 0.0924 |
| CGATGTCA | -0.131 |
| GCAGTGCA | -0.152 |
| ACCTCGTC | -0.191 |
| CGGCGTTC | -0.238 |
| ACTGTGTA | 0.221 |
| CTGTGCAC | -0.0548 |
| ACCTGCTC | -0.278 |
| GGATGTGA | -0.0443 |
| CGTACAGA | 0.045 |
| TTCAAGAA | -0.14 |
| AAAAGGCC | -0.158 |
| GCAGCGCC | -0.354 |
| GACTTTCA | -0.191 |
| TCGTACGA | -0.105 |
| CAATCCCG | -0.0986 |
| GTAATCGA | 0.0364 |
| CCATACGA | -0.0868 |
| GGTCCTGA | -0.143 |
| CAATACGA | 0.0589 |

| Sequence | binding signal [E-score] |
| --- | --- |
| CCCTGCCG | -0.196 |
| CCAAATGC | 0.126 |
| AAAGACAC | 0.000372 |
| ATGCGAAC | -0.178 |
| AAGCATAT | -0.026 |
| GATCACGA | -0.0434 |
| TGTTATAA | 0.18 |
| GAATGCGC | -0.193 |
| GGCGCACC | -0.202 |
| GCATGATA | 0.0223 |
| AGGAAAAA | -0.0818 |
| AGCCCCCC | -0.427 |
| ACCCGTTG | -0.159 |
| CTCCTGGC | -0.135 |
| AATAGCGC | 0.114 |
| CAATCCGG | -0.162 |
| AAATATTG | 0.286 |
| CGACCCTC | -0.201 |
| AACCGAAG | 0.119 |
| ACACCGAG | -0.124 |
| GTCAGTAA | 0.0288 |
| AAGGAGCC | -0.27 |
| CGCCATAA | -0.243 |
| GCACGCAA | -0.136 |
| CGGAAGGA | -0.145 |

| Sequence | binding signal [E-score] |
| --- | --- |
| AGTCGAGC | -0.0631 |
| AATAGAAA | 0.388 |
| ACGACTAC | 0.0696 |
| GTTGTGGA | -0.123 |
| AACACGAC | -0.0459 |
| AACACCGA | -0.0134 |
| CTGTGGTC | -0.142 |
| CAGAAGTC | -0.107 |
| CGACAGCA | -0.292 |
| AGCTGACG | -0.187 |
| CGAACCGA | -0.0416 |
| ACAGGAGG | -0.306 |
| CATTGAAC | 0.0279 |
| GTCCATGA | -0.137 |
| ATAGCCAG | -0.106 |
| ATTTGCTC | 0.161 |
| ATGGGGAC | -0.0853 |
| ACCCACTA | 0.173 |
| ACGTCGGC | -0.211 |
| GCGCGACC | -0.258 |
| CTAGGATC | 0.026 |
| ACAATTGG | 0.0304 |
| CTACCAGA | 0.183 |
| CACCACCG | 0.0852 |
| GAGATTAA | 0.213 |

| Sequence | binding signal [E-score] |
| --- | --- |
| GCGACTCC | -0.193 |
| CGAAACAG | -0.228 |
| CGCCAGAA | -0.14 |
| AGTGTCTC | -0.1 |
| GCACGCAC | -0.00502 |
| AATTTGGA | -0.0155 |
| CAGGATTA | -0.0736 |
| ACCGATCG | -0.131 |
| GGATGCGA | -0.104 |
| GAGCCGCC | -0.383 |
| CCGAACGA | -0.152 |
| TAATGAGA | 0.0923 |
| ACTGAGCT | 0.00475 |
| ACGCGTTG | -0.2 |
| ACGCATTC | -0.013 |
| CTTAGGCC | -0.244 |
| AGTGGTCC | -0.131 |
| AAGGCTGA | -0.203 |
| CACATAGA | 0.101 |
| CGTACCAA | 0.0159 |
| ACTAAAGT | 0.175 |
| CGGCCTTA | -0.136 |
| CGGGACGA | -0.118 |
| GGATAATA | 0.236 |
| GCACTAGC | -0.0811 |

| Sequence | binding signal [E-score] |
| --- | --- |
| CCCCCTAG | -0.227 |
| ATCATGGC | 0.0284 |
| CAAGAGAC | -0.165 |
| AAAGCTAG | 0.177 |
| TATCCCCA | -0.0814 |
| GATCTCTA | 0.0918 |
| TAAACCTA | 0.061 |
| GCTCAGTA | 0.0106 |
| CACTCAGC | -0.113 |
| GCGTCTCC | -0.189 |
| ATGGAAAG | -0.0465 |
| GCGGCTCA | -0.216 |
| AGTATTCG | -0.0298 |
| TCGTTACA | 0.071 |
| GAGGAATC | 0.075 |
| GCCAATAA | 0.133 |
| AACGCAAA | -0.043 |
| GCCGGAAC | -0.178 |
| GCACGCGC | -0.129 |
| CCGCGTCC | -0.259 |
| AAGGCGCA | -0.207 |
| ACCTGTAA | -0.0351 |
| GACAGAGC | -0.172 |
| ATTCGAAC | 0.14 |
| CTTCTAAA | -0.083 |

| Sequence | binding signal [E-score] |
| --- | --- |
| ATGCATCA | 0.121 |
| GCCCCGCC | -0.319 |
| GGGCTGCA | -0.307 |
| CCTCAGGC | -0.26 |
| AGAATACT | 0.236 |
| GGCTGTCA | -0.334 |
| AGTACGGC | 0.0247 |
| AGTGCAGA | -0.148 |
| ACGGAAAC | -0.0722 |
| AGGACGAT | -0.233 |
| GGCCTCAC | -0.248 |
| CAAATGCA | 0.00933 |
| ATCTGGTA | 0.115 |
| CGGTCGCC | -0.346 |
| ATTGGGGA | -0.0754 |
| CATATAGC | 0.127 |
| ACGAACGC | -0.0579 |
| AAAGGCAA | -0.183 |
| AGTTTCAT | 0.184 |
